The target of one experiment is HIV (pNL4-3) heterodimeric (p66/p51) Reverse Transcriptase (RT) (Human immunodeficiency virus type 1 group M subtype B, UniProt P12497). In words: In vitro biochemical HIV-1 Reverse Transcriptase (RT) assay.
Details: not given
As to the method:
Purified recombinant HIV (pNL4-3) heterodimeric (p66/p51) Reverse Transcriptase (RT) was purchased from a commercially available source. The assay was performed in 96-well filter plate, where RT activity was determined by the incorporation of radiolabeled deoxyribonucleotides into the newly synthesized DNA strand. […] Briefly, the reaction was carried out in a volume of 50 μl containing 50 mM Tris HCl, pH 7.8, 50 mM KCl, 5 mM MgCl2, 1 mM DTT, 50 μM each of dATP, dCTP, dGTP, 50 nM dTTP, 1 μCi of [^3H] dTTP (70-90 Ci/mM) and 5 nM template/primer. The reaction was initiated by the addition of 10 nM RT.
Compounds were diluted in 100% DMSO to 40 mM. Each compound was diluted in the appropriate reaction buffer for the biochemical assay per protocol. Serially diluted test compounds were added to the reaction followed by the addition of RT. The reaction mixture was incubated at 37° C. for 1 h, and then quenched by the addition of ice-cold trichloroacetic acid (TCA) to the final concentration of 10%. The plate was incubated at 4° C. for 1 h to precipitate the synthesized DNA, then rinsed 3-times with 10% TCA and 1 time with 70% ethanol. After addition of 25 μl scintillation fluid to completely dried wells, radioactivity was counted by MicroBeta scintillation counter (PerkinElmer). The reduction of radioactivity represents the potency of compound inhibition. (See Table 3)
In general, IC50 refers to the concentration that inhibits the measured activity by half. High values mean a need for much substance, low ones inhibition by little substance. `Cc1nc(C(NC(=O)c2ccc(-c3ccc(Cl)cc3)[nH]2)C2CCCCN2)sc1CO` (single isomer, unassigned) [Compound 17] displayed a half-maximal inhibitory concentration (IC50) of 43400 nM. The compound `Cc1nc(C(CN)NC(=O)c2ccc(-c3ccc(Cl)c(F)c3)[nH]2)sc1CO` (single isomer, unassigned) [Compound 41] came in with an IC50 of 2560 nM. `NCC(NC(=O)c1ccc(-c2ccc(Cl)c(F)c2)[nH]1)c1ncc(CO)s1` (single isomer, unassigned) [Compound 90] came in with a half-inhibitory concentration (IC50) of 2720 nM. For `Cc1ccnc2c1NC(=O)c1cccnc1N2C1CC1` [Nevirapine, reference compound], 200 nM corresponded to half-maximal inhibition (IC50).

Still in this experiment, the particulars now being: HIV-1 Reverse Transcriptase (RT) assay.
In turn, `Cc1cn([C@H]2C[C@H](N=[N+]=[N-])[C@@H](COP(=O)(O)OP(=O)(O)OP(=O)(O)O)O2)c(=O)[nH]c1=O` [AZT-TP, reference compound] displayed a half-maximal inhibitory concentration (IC50) of 8 nM. Still for that read-out and setting: in the case of NBD-556 it was greater than 200000 nM.

(Values after patent publication US11059808B2, “Substituted phenylpyrrolecarboxamides with therapeutic activity in HIV” (New York Blood Center, Inc., priority 2014, dated 2021).)
